The whole screen tested about 45,000 compounds, of which about 65 (0.1%) were called active. Calls come from the whole dose curve; as a rule, active = well fitted activation curve with a large enough effect; inconclusive = small, poorly fitted or top-dose-only effect; inactive = no such curve, though single readings can be large or run the other way. This is one part of the list.
These compounds were tested against Galactocerebrosidase (Homo sapiens) (UniProt P54803) (assay: A Novel Cell-Based Assay to Identify Small Molecules for B -Galactocerebrosidase). Conditions: 145M-Twi-hGALC-G270D cells (Twitcher mouse brain line with human GALC G270D), HMU-beta-Gal fluorescence, 48 h; series mostly up to 57.5 µM; activation: at the top concentration.
Outline: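 Mutant human GALC (G270D), stably expressed in a Twitcher mouse brain cell line lacking endogenous GALC, is measured in live-treated cells via 6-hexadecanoylamino-4-methylumbelliferyl-β-galactoside hydrolysis (0.1 mM final, pH 5.2) with fluorescent detection.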
Note: 0% is about no effect; nearly all actives have a fitted effect of over 65% in size.

Sequence of UniProt P54803 (P54803 whole entry, looked up): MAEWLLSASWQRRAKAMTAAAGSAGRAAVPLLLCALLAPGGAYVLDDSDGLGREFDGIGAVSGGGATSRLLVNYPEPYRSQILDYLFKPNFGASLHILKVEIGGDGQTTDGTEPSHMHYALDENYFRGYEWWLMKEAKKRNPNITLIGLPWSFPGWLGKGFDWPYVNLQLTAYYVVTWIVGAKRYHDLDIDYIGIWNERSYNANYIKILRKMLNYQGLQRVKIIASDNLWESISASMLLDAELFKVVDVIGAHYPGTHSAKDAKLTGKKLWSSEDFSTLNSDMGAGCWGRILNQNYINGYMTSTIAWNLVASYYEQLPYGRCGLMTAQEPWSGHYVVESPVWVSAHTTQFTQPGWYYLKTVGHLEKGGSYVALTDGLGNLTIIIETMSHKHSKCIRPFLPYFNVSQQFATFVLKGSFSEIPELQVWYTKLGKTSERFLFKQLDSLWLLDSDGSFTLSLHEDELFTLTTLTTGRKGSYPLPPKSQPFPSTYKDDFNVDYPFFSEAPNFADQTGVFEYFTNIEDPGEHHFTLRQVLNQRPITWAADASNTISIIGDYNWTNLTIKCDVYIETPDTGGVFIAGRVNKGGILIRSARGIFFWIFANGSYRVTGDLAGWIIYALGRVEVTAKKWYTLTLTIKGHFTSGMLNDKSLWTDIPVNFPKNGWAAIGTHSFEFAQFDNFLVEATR

Compound	activation
Cc1cc(Br)ccc1NC(=O)c1c(C)oc2ncnc(N3CCCCC3)c12	inactive: -19.9%
Cc1ccccc1N1CC(c2nc3ccccc3n2Cc2ccc(Br)cc2)CC1=O (stereo not given)	inactive: -29.5%
COc1ccc(OC)c(C(=O)CN2C(=O)N(c3ccc(C)cc3)S(=O)(=O)c3ccccc32)c1	inactive: -10.2%
Cc1ccc(CNS(=O)(=O)c2ccc3c(c2)CC(C)N3C(=O)C2CCC2)cc1 (stereo not given)	inactive: -20%
COC(=O)c1c(-c2cccs2)csc1NC(=O)c1ccc(C)cc1	inactive: -22.2%
O=C(Cn1c(-c2cccs2)cc2ccccc21)N1CCN(c2ccc(F)cc2)CC1	inactive: -11%
Cc1ccccc1NC(=O)CCn1nc(-c2ccccc2)c2ccccc2c1=O	inactive: -11.6%
CCOc1ccc(Sc2cc(C(=O)NCc3ccccc3Cl)c3ccccc3n2)cc1	inactive: -7.79%
COCCNC(=O)CN1C(=O)COc2ccc(S(=O)(=O)N3CCCC3)cc21	inactive: 8.93%
CCN(CC)CCOC(=O)c1ccc(NC(=O)c2cc3cc(OC)ccc3oc2=O)cc1	inactive: -1.94%
CCc1ccc(NC(=O)Cn2c(=O)n(CCCC(=O)NCCc3ccc(OC)c(OC)c3)c(=O)c3ccccc32)cc1	inactive: -9.61%
CCOC(=O)N1CCc2c(sc3c2C(=O)NC(c2ccc(C(=O)OC)cc2)N3)C1 (stereo not given)	inactive: -20.6%
Cc1nnc(SCC(=O)Nc2ccc(N(C)C)cc2)[nH]c1=O	inactive: -17.3%
Cc1c(Cl)cccc1-n1nc(C)c2c(C)cc(=O)n(CC(=O)N3CCCc4ccccc43)c21	inactive: -36.8%
CCOC(=O)c1ccc2c(c1)N(Cc1ccc(F)cc1Cl)C(=O)c1ccccc1S2	inactive: 1.67%
Cc1cnc(=O)[nH]c1SCC(=O)Nc1cc(C(F)(F)F)ccc1Cl	inactive: -9.09%
Cc1cc2oc3c(c(=O)c2cc1C)C(c1ccc(C(C)C)cc1)N(c1nc(C)c(C)s1)C3=O (stereo not given)	inactive: -14.9%
CCCOc1ccc(CNC(=O)C2CCN(C(=O)c3sccc3-n3cccc3)CC2)cc1	inactive: 1.78%
CCCNC(=O)C1CCN(c2nc3ccc(C)cc3[nH]2)CC1	inactive: 4.67%
COc1ccc(-c2nc3ccccc3n3c(-c4ccc(OC)cc4)c4c(=O)n(C)c(=O)n(C)c4c23)cc1	inactive: -19%
Cc1ccc(CNC(=O)CCCN2C(=O)CCn3nc(-c4cccn4C)cc32)cc1	inactive: -13%
Cc1cccc(CN2CCN(CC(=O)Nc3c(C)cccc3C)S2(=O)=O)c1	inactive: -7.7%
COc1cc(CNc2ccc3[nH]c(=O)[nH]c3c2)cc(Br)c1OCc1ccccc1F	inactive: -10.1%
COCCNC(=O)CSc1nc(-c2ccccc2)[nH]c1-c1ccc(C)cc1	inactive: -10.3%

Compound	activation
Cc1ccc(C)n1-c1nnc(N2CCCC(C(=O)NCc3cccc(Br)c3)C2)s1 (stereo not given)	inactive: -7.34%
COc1cccc(NC(=O)N(Cc2cn(C)c3ccccc23)C2CCCCCC2)c1	inactive: -2.41%
CCN1CCN(c2cc(C)c3cc(NC(=O)/C=C/c4ccc(C)cc4)ccc3n2)CC1	inactive: -24.4%
Cc1cccc(C(=O)Nc2ccc(N3CCC(N4CCCCC4)CC3)c(C(=O)O)c2)c1	inactive: -0.64%
Cc1ccc(CNC(=O)CCc2c(C)nc3c4c(C)cc(C)nc4nn3c2C)cc1	inactive: -10.8%
Cc1ccc(Cl)cc1NC(=O)CC1Sc2ccccc2NC1=O (stereo not given)	inactive: -13%
NC1=NC(c2cc(F)cc(F)c2)n2c(nc3ccccc32)N1 (stereo not given)	inactive: -6.73%
CC1=C(C(=O)NCc2ccc(Cl)cc2)C2(CCC(C)CC2)OC1=O (stereo not given)	inactive: -9.94%
O=S(=O)(Nc1ccc(C(F)(F)F)cc1)c1ccc2c(c1)OCCO2	inactive: -10.7%
COc1ccccc1N1CCN(Cc2nnc(-c3ccccc3C)o2)CC1	inactive: -13.8%
CCOC(=O)c1cccc(NC(=O)c2ccc3nc(CCc4ccccc4)oc3c2)c1	inactive: 1.83%
O=C(c1ccc2c(c1)N(Cc1ccc(Cl)cc1)C(=O)c1ccccc1S2=O)N1CCC(Cc2ccccc2)CC1 (stereo not given)	inactive: -10.4%
O=C(NCCCc1nc2ccccc2n1Cc1cccc(Cl)c1)C1CCCCC1	inactive: -1.34%
COCCCn1c(=O)c2sccc2n2c(CCCC(=O)Nc3cccc(C(F)(F)F)c3)nnc12	inactive: -7.66%
CC1=C(C(=O)Nc2ccccc2)C(c2ccc[nH]2)n2ncnc2N1 (stereo not given)	inactive: -13.5%
CCCCOC(=O)c1ccc(NC(=O)c2csnn2)cc1	inactive: -3.16%
Cc1ccccc1OCC(=O)Nc1ccc2nc(SCC(N)=O)sc2c1	inactive: -10.8%
Cc1c(Cl)cccc1NC(=O)Cn1nnc(-c2nc(-c3ccccc3)no2)c1N	inactive: -4.98%
CCCOc1ccc(C(=O)Nc2ccc3oc(-c4ccc(N(C)C)cc4)nc3c2)cc1	inactive: -12.8%
Cc1cccc(C)c1NC(=O)CSc1nc2ccccc2c2nc(CCc3c(C)n[nH]c3C)nn12	inactive: -2.22%
COC(=O)c1ccc(NC(=O)C(=O)NCC(c2cccnc2)N2CCc3ccccc32)cc1 (stereo not given)	inactive: -14.3%
CCn1cc(C(=O)NCCc2ccc(C)cc2)c(=O)c2cc(S(=O)(=O)N3CCC(C)CC3)ccc21	inactive: -33.2%
CCCOc1ccc(OC(=O)c2cn(-c3ccc(OC)cc3)c(=O)c3ccccc23)cc1	inactive: -3.27%
CCC1=C[C@@H]2CN(C1)Cc1c([nH]c3ccccc13)[C@@](C(=O)OC)(c1cc3c(cc1OC)N(C)[C@H]1[C@@](O)(C(=O)OC)[C@H](OC(C)=O)[C@]4(CC)C=CCN5CC[C@]31[C@@H]54)C2	inactive: -9.35%

Compound	activation
Cc1ccc(CCNC(=O)CCS(=O)(=O)c2cc3c(cc2Cl)NC(=O)CO3)cc1	inactive: -11.7%
CC(C)NC(=O)CN1C(=O)c2cccnc2Sc2ccccc21	inactive: -2.45%
CC(=O)c1cccc(NC(=O)c2cc(C)nc3c2c(C)nn3-c2cccc(Cl)c2C)c1	inactive: -11%
COc1ccc(CNC(=O)C2=CC(c3cccc(OC)c3)=NS(=O)(=O)N2C)cc1	inactive: -7.82%
O=C(OCc1cc(=O)n2nc(C3CC3)sc2n1)c1ccccc1Cl	inactive: -10.3%
Cc1cccc(N2CCN(C(=O)c3ccc4c(Cl)c5c(nc4c3)CCCC5)CC2)c1C	inactive: -15.5%
CCOc1ccccc1NC(=O)C1=C(C)Nc2ncnn2C1c1cccs1 (stereo not given)	inactive: 9.06%
COc1ccc(NC(=O)Cn2nc(C(F)(F)F)c3c2CCCC3)cc1OC	inactive: -9.67%
COc1cccc(-c2nn3c(=O)cc(CN4CCN(C(=O)/C=C/c5ccccc5)CC4)nc3s2)c1	inactive: -8.18%
COc1cc(NC(=O)c2nc3ccccc3n(C)c2=O)cc(OC)c1OC	inactive: -10.7%
Cc1ccc(NC(=O)Cn2c(=O)n(Cc3ccc(C(=O)NCc4ccc5c(c4)OCO5)cc3)c(=O)c3ccccc32)cc1	inactive: -13.2%
COc1ccc(NC(=O)c2csnn2)cc1	inactive: -3.03%
CCOc1ccc(CNC(=O)CCS(=O)(=O)c2ccc3c(c2)oc(=O)n3C)cc1	inactive: -26%
COC(=O)c1c(-c2ccc(Cl)cc2)noc1N1CCN(c2ccc(F)cc2)CC1	inactive: 0.747%
Cc1ccc(-c2nc(-c3cc4cccc(OCc5ccccc5F)c4oc3=O)no2)cc1	inactive: -6.73%
COc1ccc(-c2cc(C(C)=O)c(C)n2CCC(=O)NCc2ccc(C)cc2)cc1	inactive: 7.42%
COc1cccc(CNC(=O)C2CCN(C(=O)c3cnn(-c4ccccc4)c3-n3cccc3)CC2)c1	inactive: -5.02%
Cc1ccc(NC(=O)Nc2cn(CC(C)C)c(=O)c3ccccc23)cc1N(C)C	inactive: -49.4%
CCOC(=O)c1cc(S(=O)(=O)N2CCN(c3cccc(C)c3C)CC2)[nH]n1	inactive: -5.85%
CNC(=O)c1c(NC(=O)c2nc(SCc3ccc(C)cc3)ncc2Cl)sc2c1CCCC2	inactive: -9.81%
CCCS(=O)(=O)c1ncc(Cl)c(C(=O)Nc2c(C(=O)Nc3ccccc3)oc3ccccc23)n1	inactive: -25.3%
CCN(c1ccccc1C)S(=O)(=O)c1nnc(NC(=O)c2ccco2)s1	inactive: -3.68%
Cc1ccc(-n2ncc(C(=O)NC3CCCCC3)c2C2CCN(C(=O)OC(C)(C)C)CC2)cc1	inactive: -8.45%
COc1ccccc1OCC(=O)N1CCC(c2nc3ccccc3o2)CC1	inactive: -18.7%

Compound	activation
CN(CC(=O)NCc1ccc(F)cc1)S(=O)(=O)c1ccc2[nH]c3c(c2c1)CCCC3	inactive: -26.1%
COc1ccc(CNc2nc3c(-c4cccc(F)c4)nnn3c3ccccc23)cc1	inactive: -6.06%
Cc1ccc(NC(=O)c2c(C)oc3c2C2=NCCN2C=N3)cc1F	inactive: -10.2%
COc1ccc(-c2c(C)nn3c(C(F)(F)F)cc(-c4ccccc4)nc23)cc1OC	inactive: -8.49%
COc1ccc(N(C)C(=O)c2cc3c(s2)-c2c(C)cccc2OC3)c(OC)c1	inactive: -5.35%
Cc1c(Cl)cccc1NC(c1ccc(F)cc1)c1nnc(-c2ccccc2)o1 (stereo not given)	inactive: 12.3%
CCc1ccc(-n2c(=O)c3sc4ccccc4c3n(CC(=O)NCc3ccccc3)c2=O)cc1	inactive: -5.42%
O=C(c1ccc2c(c1)N(Cc1cccc(F)c1)C(=O)c1ccccc1S2)N1CCC2(CC1)OCCO2	inactive: -10.7%
O=C(Nc1cccnc1)c1cc(-c2ccc(Cl)cc2)on1	inactive: -19.8%
O=C(Cn1cccc1C(=O)c1ccccc1)NCc1ccccc1Cl	inactive: -9.7%
Cc1cccn2c(=O)cc(CSc3nnc(NC(=O)COc4ccccc4)s3)nc12	inactive: -32.6%
COC(=O)c1cc2sccc2n1CC(=O)Nc1ccc(OC)c(OC)c1	inactive: -25.9%
Cc1ccc(S(=O)(=O)NCc2nc3nc(C)cc(C)n3n2)cc1	inactive: 19.8%
Cc1cccc(C)c1OCC(=O)NC(Cc1c[nH]c2ccccc12)C(=O)O (stereo not given)	inactive: -7.6%
Cc1ccc(C)c(CN2CCCN(CC(=O)Nc3ccc(C)c(C)c3)S2(=O)=O)c1	inactive: -6.7%
COc1cc(C)nc(-n2nc(C)cc2OC)n1	inactive: -3.2%
Cc1ccc(-n2c(=O)c3c4c(sc3n(CC(=O)Nc3cccc(Cl)c3)c2=O)CCCCC4)cc1C	inactive: -4.28%
CS(=O)(=O)Nc1ccc([N+](=O)[O-])cc1Oc1ccccc1	inactive: -7.39%
CCN(CC)CCCNC(=O)c1ccc(Cn2c(=O)[nH]c3cc(OC)c(OC)cc3c2=O)cc1	inactive: -10.1%
COc1cc(Cl)c(C)cc1NC(=O)CCc1nc2cccnc2n1Cc1cccs1	inactive: -35.9%
CCn1cc(C(=O)O)c(=O)c2cc(F)c(N3CCNC(C)C3)c(F)c21 (stereo not given)	inactive: -19.1%
CCOC(=O)c1c(S(=O)(=O)N2CCC(C(=O)N3CCN(c4ccccc4F)CC3)CC2)c(C)n(C)c1C	inactive: -11.7%
Cn1cc(C(=O)NCc2ccccc2Cl)c(=O)c2cc(S(=O)(=O)N3CCCCCC3)ccc21	inactive: -11.5%
